“And” between values parts separate entries of the source, which are not always exact repeats. Equal entries are not always repeated. Among all 150,000 compounds or so, about 540 (0.36%) showed an effect of 50% or more. The list shows a part of the results.
Tested on: Plasmodium falciparum
Assay: Primary screen in NF54 nanoGlo assay, in single point, at 2uM, 72h; a lower Z score goes with more inhibition
Format: functional, Erythrocyte
Details: timepoint 72 hour

SMILES | % Inhibition | Z score | % Inhibition (2 µM)
CCCN(CC(=O)N1CCN(S(=O)(=O)c2ccc3c(c2)CCCC3)CC1)CC(F)F | -7% | 0.91 | –
COc1cccc(C[C@@]2(C3CCNCC3)NC(=O)N(CC3CCC3)C2=O)c1 | 3% | -0.67 | –
CS(=O)(=O)c1ccc(CNC(=O)NC[C@H]2CCC3(CCCC3)O2)s1 | -5% | 1.01 | –
COc1ccc(-c2noc(CC3CCNCC3)n2)cc1 | – | – | -7% and 0%
CS(=O)(=O)N1C[C@H]2CCN(C(=O)c3cc4ccccc4[nH]3)C[C@@]2(CO)C1 | -11% | 1.25 | –
CCN(C(=O)c1ccoc1C)c1ccccc1 | -4% | 0.47 | –
Cc1nc(CN(C)C(=O)c2sc(C(C)C)nc2C)cs1 | -17% | 1.67 | –
Cc1[nH]c2ccccc2c1CCNS(=O)(=O)CCn1cnnn1 | -15% | 2.68 | –
CC(=O)N[C@H](CC1CCC1)C(=O)Nc1cccnc1C | -3% | 0.57 | –
COc1ccccc1Cn1c(=O)[nH]c2cc(-c3nc(-c4ccc(F)cc4)no3)ccc2c1=O | -9% | 0.99 | –
COc1ccc(C(=O)N2C(C(=O)NCC3CCCO3)COC23CCN(C(=O)c2ccc(F)cc2)CC3)cc1 (stereo not drawn) | 1% | -0.16 | –
Cc1csc([C@](O)(CC(=O)Nc2ccc3c(c2)OC(C)(C)O3)C(F)(F)F)n1 | -2% | 0.32 | –
CCc1csc(CNC(=O)c2ccc(N3CCN(C)[C@@H](CC)C3)nc2)n1 | 1% | -0.14 | –
CCc1nn(-c2ccc(OC)cc2)c(Oc2cccc(F)c2)c1CCC(=O)N(C)C(C)C | -17% | 1.74 | –
CC1CN(S(=O)(=O)C2CCCN(C(=O)OCc3ccccc3)C2)CC[S+]([O-])C1 (stereo not drawn) | -2% | 0.22 | –
COc1ccccc1-c1nc2cc(Cl)ccc2cc1CN(Cc1ccc2c(c1)OCO2)C(C)=O | 0% | 0.08 | –
CC(=O)Nc1c(C(C)(C)C)cc(C(C)(C)C)c(N)c1C | -8% | 0.95 | –
Cc1ccc(NC(=O)Cn2cnc3c(c2=O)CN(Cc2ccccc2)CC3)cc1F | -12% | 1.58 | –
COCC(C)(C)NC(=O)CCn1cnnn1 | 4% | -0.75 | –
N#Cc1cc2n(n1)CCCN(CC1=CCCCC1)C2 | -6% | 1.15 | –
O=C(Nc1cccc2cccnc12)N1CCCO[C@@H](CN2CCCCC2)C1 | -6% | 0.65 | –
COC(=O)[C@@H]1CC[C@@H](c2ccccc2)N1C(=O)c1cc(OC)ccn1 | -2% | 0.26 | –
COc1ccc([C@@H]2CCCN2C(=O)CCC(=O)c2ccccc2)cc1OC | -6% | 0.6 | –
CCCC1(CCC)NC(=O)N(CC(=O)Nc2ccn(C)n2)C1=O | 3% | -0.35 | –
CC[C@H](OC1CCCC1)C(=O)Nc1ccn(C(C)(C)C)n1 | -9% | 1.13 | –
Cc1nonc1CC(=O)Nc1ccc(C(F)F)nc1 | 0% | 0.01 | –

SMILES | % Inhibition | Z score | % Inhibition (2 µM)
COC(=O)c1cc(C2CC2)nc2c1c(=O)n(Cc1ccc(C)cc1)c(=O)n2C | -11% | 1.52 | –
CCOCC(=O)NCC1CCC(c2nc3ccccc3[nH]2)CC1 (stereo not drawn) | -14% | 1.63 | –
CC1(C2CCCN(Cc3ccc4c(c3)CCC4)C2)NC(=O)NC1=O (stereo not drawn) | -8% | 1.26 | –
Cc1cc(S(=O)(=O)N[C@H]2CCN(C)C2)c(C)s1 | -22% | 2.79 | –
Cc1noc(C)c1S(=O)(=O)N1C[C@@H]2C[C@H](NC(=O)c3ccccc3)[C@H]1C2 | -15% | 2.5 | –
O=C(O)c1cc(C(=O)N2CCCC[C@@H]2CCCc2ccccc2)ccn1 | 7% | -0.81 | –
Cc1ccnc2c1NC(=O)CN2C(=O)COc1cccc(Cl)c1C | -16% | 2.01 | –
Cc1n[nH]c(C(=O)N2CCn3nc([C@@H](O)c4ccnn4C)cc3C2)c1Cl | -7% | 1.28 | –
CCOc1ccc(S(=O)(=O)N2CC=C(c3c(C)n(Cc4ccc(Cl)cc4)c4ccccc34)CC2)cc1 | -11% | 1.48 | –
O=C1CN(S(=O)(=O)c2ccccc2C(F)(F)F)CCN1c1ncc(F)cn1 | 18% | -2.31 | –
CCCCn1nnnc1Cn1cncn1 | -6% | 0.68 | –
CC(C)[C@@H]1CCO[C@@H]1c1nc(-c2ccc3[nH]c(=O)[nH]c3c2)no1 | -9% | 1.34 | –
O=C1NCCC[C@@H]1Oc1cccc(C(F)(F)F)n1 | -1% | 0.08 | –
O=C(NCCc1ccco1)[C@H]1CCCN(c2nc3ncccc3n3cccc23)C1 | -21% | 2.39 | –
CC(=O)N[C@H]1C[C@H]2CN(Cc3ccccc3OC(C)C)CC(=O)N2C1 | -20% | 1.79 | –
O=C(Nc1ccc2c(c1)OCCO2)N1CCC[C@@H]1Cc1noc(-c2cnccn2)n1 | -14% | 1.88 | –
Cc1cc(N2CCC[C@@H]2CN2CCOCC2)nc(C(C)C)n1 | -7% | 0.94 | –
CCC(C)N(CC(=O)O)C(=O)C(C)c1cccs1 (stereo not drawn) | -5% | 0.57 | –
O=S(=O)(N1CCOCC1)N(C[C@H]1CCOC1)C1CC1 | -14% | 1.2 | –
CCc1ccc(-c2cc(C(=O)N3C[C@H]4CCCN[C@H]4C3)[nH]n2)cc1 | -15% | 2.56 | –
COCCNC(=O)N[C@@H](C)Cc1cccs1 | -6% | 0.91 | –
O=C(CCCn1cccn1)N[C@H]1CCC[C@H]1Cc1ccc(F)cc1 | -6% | 1.04 | –
CN(C(=O)Cn1cccc(S(=O)(=O)N2CCCCCC2)c1=O)C1CCCCC1 | -4% | 0.69 | –
CCCc1cc(C(=O)N2CCN(c3ccc(N(C)C)cc3)CC2)[nH]n1 | 0% | 0.06 | –
COc1ccc(-c2cc(C(=O)N3CCN(C(c4ccccc4)c4ccccc4)CC3)c3cc(Br)ccc3n2)cc1 | -6% | 0.81 | –
Cc1ccc(C(C(=O)Nc2ccc(C(C)C)cc2)N(Cc2ccco2)C(=O)CC2NC(=O)NC2=O)cc1 (stereo not drawn) | 25% | -3.82 | –

Reference: ChEMBL document CHEMBL4888484, “Replenishing the malaria drug discovery pipeline: Screening and hit evaluation of the MMV Hit Generation Library 1 (HGL1) against asexual blood stage Plasmodium falciparum ,using a nano luciferase reporter read-out” (2022)
